These results are taken from article PMC10514306, “The CBL1/9-CIPK1 calcium sensor negatively regulates drought stress by phosphorylating the PYLs ABA receptor” (Nature Communications, 2023).

Sequences of proteins named here, by UniProt entry; tags and fusion partners are left off.
UniProt O49686: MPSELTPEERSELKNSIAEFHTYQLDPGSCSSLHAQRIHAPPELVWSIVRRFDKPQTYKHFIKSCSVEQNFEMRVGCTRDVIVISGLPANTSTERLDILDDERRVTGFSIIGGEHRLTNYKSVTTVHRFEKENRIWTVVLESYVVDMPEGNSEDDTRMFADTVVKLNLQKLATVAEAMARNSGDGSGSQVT
UniProt Q8VZS8: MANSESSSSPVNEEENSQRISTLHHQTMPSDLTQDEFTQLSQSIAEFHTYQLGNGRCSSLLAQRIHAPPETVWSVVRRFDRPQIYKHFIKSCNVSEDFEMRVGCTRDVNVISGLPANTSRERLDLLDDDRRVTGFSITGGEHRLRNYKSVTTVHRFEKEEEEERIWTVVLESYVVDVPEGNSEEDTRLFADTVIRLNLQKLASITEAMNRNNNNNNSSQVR
UniProt P49597: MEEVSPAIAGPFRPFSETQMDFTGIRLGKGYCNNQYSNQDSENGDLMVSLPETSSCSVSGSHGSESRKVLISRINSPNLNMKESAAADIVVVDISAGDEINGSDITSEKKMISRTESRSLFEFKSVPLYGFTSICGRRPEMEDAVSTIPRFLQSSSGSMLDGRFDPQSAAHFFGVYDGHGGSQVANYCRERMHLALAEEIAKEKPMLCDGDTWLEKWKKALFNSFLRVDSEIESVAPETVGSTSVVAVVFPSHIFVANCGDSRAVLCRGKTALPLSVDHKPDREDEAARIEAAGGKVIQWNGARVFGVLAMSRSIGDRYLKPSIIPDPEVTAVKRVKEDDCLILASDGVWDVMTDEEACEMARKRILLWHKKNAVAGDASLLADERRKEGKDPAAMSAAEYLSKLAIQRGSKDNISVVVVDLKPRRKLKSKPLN

These are yes or no findings as the source states them, for the method shown. For some of these results: Binding seen in cells or lysates may run through a third protein. Some entries that bind do so weakly or less than the wild type. For some of these results: Tags and fused reporters may be left off the sequences shown.

Test [1] concerns the target T1, PYL4 in pGBKT7 (Arabidopsis) (UniProt O80920).
T1 sequence: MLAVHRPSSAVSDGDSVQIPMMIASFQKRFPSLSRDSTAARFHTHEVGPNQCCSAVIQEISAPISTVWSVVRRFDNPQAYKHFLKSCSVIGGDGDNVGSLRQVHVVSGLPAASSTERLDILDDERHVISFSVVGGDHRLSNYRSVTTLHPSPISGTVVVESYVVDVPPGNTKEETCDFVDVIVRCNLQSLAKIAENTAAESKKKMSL
Nature of the test: two-hybrid; ABI1 in pGADT7, PYL4 in pGBKT7, S. cerevisiae AH109; growth on SD/-Leu/-Trp/-His in the absence or presence of 10 uM ABA, 30 C, 4 d.

Test [2] addresses T2, CIPK1-FLAG (Arabidopsis) (UniProt Q8RWC9).
T2 sequence: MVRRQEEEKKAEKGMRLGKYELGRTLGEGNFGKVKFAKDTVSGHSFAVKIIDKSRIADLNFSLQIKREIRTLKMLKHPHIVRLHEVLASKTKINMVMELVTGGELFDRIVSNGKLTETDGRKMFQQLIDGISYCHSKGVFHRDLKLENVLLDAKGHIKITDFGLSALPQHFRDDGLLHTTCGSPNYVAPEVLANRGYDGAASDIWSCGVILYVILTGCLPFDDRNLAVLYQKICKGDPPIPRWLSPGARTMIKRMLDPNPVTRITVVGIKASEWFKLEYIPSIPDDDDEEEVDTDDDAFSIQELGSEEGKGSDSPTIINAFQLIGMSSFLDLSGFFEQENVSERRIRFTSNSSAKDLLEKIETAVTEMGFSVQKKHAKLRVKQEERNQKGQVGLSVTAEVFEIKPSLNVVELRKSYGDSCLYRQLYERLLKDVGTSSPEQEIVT
Nature of the test: co-IP; protein extract of transgenic Arabidopsis expressing PYL1/4-GFP and CIPK1-FLAG; anti-FLAG precipitation, anti-GFP blot; without or with 100 uM ABA added to the extract.

In test [3] the target is PYR1-YFP^c (Arabidopsis) (UniProt O49686). Briefly: split reporter; BiFC: YFP^n-CIPK1 and PYR1/PYLs-YFP^c expressed in N. benthamiana leaves for 4 d; confocal microscopy.
Test [4] concerns the target T3, PYL2-YFP^c (Arabidopsis) (UniProt O80992).
T3 sequence: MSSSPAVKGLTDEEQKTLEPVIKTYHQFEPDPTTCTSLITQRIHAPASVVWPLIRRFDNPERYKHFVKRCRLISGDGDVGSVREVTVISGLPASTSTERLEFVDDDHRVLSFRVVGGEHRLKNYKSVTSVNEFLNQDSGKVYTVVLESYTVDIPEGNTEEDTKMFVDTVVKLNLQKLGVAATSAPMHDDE
The test is described as above.

The target of test [5] is T4, PYL3-YFP^c (Arabidopsis) (UniProt Q9SSM7).
T4 sequence: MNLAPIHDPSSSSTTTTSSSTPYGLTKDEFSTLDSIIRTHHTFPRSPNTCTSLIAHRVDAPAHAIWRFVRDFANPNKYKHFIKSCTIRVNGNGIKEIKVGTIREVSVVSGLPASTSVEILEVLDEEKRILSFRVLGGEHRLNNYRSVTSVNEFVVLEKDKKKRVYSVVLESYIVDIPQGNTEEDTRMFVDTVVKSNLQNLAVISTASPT
Described as above.

Test [6] has as its target PYL1-YFP^c (Arabidopsis) (UniProt Q8VZS8). The test is described as above.
Test [7] concerns the target T5, PYL4-YFP^c (Arabidopsis) (UniProt O80920).
T5 sequence: T1 sequence
The test is described as above.

The target in test [8] is T6, PYL5-YFP^c (Arabidopsis) (UniProt Q9FLB1).
T6 sequence: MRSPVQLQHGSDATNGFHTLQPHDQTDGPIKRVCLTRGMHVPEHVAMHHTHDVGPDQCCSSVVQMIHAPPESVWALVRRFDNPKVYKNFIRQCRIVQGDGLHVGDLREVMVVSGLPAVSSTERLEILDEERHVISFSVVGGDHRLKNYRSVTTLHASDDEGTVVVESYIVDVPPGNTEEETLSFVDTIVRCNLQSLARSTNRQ
Described as above.

In test [9] the target is T7, PYL6-YFP^c (Arabidopsis) (UniProt Q8S8E3).
T7 sequence: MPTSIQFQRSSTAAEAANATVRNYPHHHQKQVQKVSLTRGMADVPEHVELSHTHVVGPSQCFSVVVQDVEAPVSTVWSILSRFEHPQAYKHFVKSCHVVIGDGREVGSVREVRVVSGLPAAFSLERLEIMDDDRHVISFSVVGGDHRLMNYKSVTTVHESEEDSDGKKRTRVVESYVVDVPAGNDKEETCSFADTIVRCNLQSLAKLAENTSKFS
The test is described as above.

Test [10] deals with T5, PYL4-YFP^c (Arabidopsis). Nature of the test: split reporter; BiFC in tobacco leaf protoplasts, without or with CBL1-FLAG; confocal microscopy; CBL1n-OFP as plasma-membrane marker.
The target of test [11] is T8, GST-PYL9 (Arabidopsis) (UniProt Q84MC7).
T8 sequence: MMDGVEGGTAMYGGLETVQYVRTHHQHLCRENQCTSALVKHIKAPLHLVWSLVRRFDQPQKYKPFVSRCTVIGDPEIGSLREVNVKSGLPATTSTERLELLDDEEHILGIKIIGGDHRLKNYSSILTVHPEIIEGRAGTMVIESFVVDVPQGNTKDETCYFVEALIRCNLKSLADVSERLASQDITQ
Nature of the test: pull-down; 5 ug GST-PYR1/PYLs on GST resin at 4 C for 2 h, then 2 ug CIPK1-His for 2 h in pull-down buffer; 6 washes; blots with anti-His and anti-GST; both purified.

The target in test [12] is GST-ABI1 (Arabidopsis) (UniProt P49597). Nature of the test: pull-down; in vitro pull-down of ABI1 and PYL4 or PYL4^S129D; who was held is not stated; both purified.

With “ABI1 in pGADT7 (from UniProt P49597 1-434) (enzyme)”, the binding entry in test [1] is “binds”.

Turning to “PYL1-GFP (from UniProt Q8VZS8 1-221) (receptor)”, in [2], the binding entry was “binds”.

B1: YFP^n-CIPK1 (enzyme, UniProt Q8RWC9 1-444)
chain: T2 sequence
For the molecule B1, the binding entry in test [3], in [4], in test [5], in test [6], in test [7] and in [8] was “binds” each time. The binding entry in [9] and in test [10] was “binds” each time.

B2: CIPK1-His (enzyme, UniProt Q8RWC9 1-444)
chain: T2 sequence
As to B2, the binding entry in test [11] was “no binding”.

B3: PYL4-GFP (receptor, UniProt O80920 1-207)
chain: T1 sequence
Consider B3, for which the binding entry in test [2] is listed as “binds”.

B4: PYL4-His (receptor, UniProt O80920 1-207)
chain: T1 sequence
With B4, the binding result in [12] is listed as “binds”.
